Assay results published in PubChem BioAssay AID1508624 (National Center for Advancing Translational Sciences (NCATS), 2021).
Values joined by “and” are separate entries in the source; they are usually repeats but may differ in a detail not shown here. Equal values may be shown once. Among all 48,000 compounds or so, about 120 (0.25%) were called active. Inconclusive results (about 4%) are left out. Calls follow the shape of the dose curve; as a rule, active = well fitted activation curve with a large enough effect; inconclusive = small, poorly fitted or top-dose-only effect, or another doubt; inactive = no such curve, though single readings can be large or run the other way. The list shows a part of the results.

Assay: Primary qHTS for Identification of Small Molecule Activators of Huntingtin-Antisense Promoter Activity; also: nearly all actives have a fitted effect of over 55% in size
Details: HEK293 HTT-AS promoter firefly luciferase reporter, 24 h; at 57.5 µM (top of the series) unless noted
Summary of the method: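 HEK293 luciferase promoter-reporter cells (2,500/well) plated 24 h, then compounds added at up to 57.5 uM final for 24 h at 37 °C. Firefly luminescence by Dual-Glo, normalized to vehicle (0%) and zero RLU (-100%).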

Row | SMILES | activity change, positive = activation
1 | CC(Cc1ccccc1)NCCn1cnc2c1c(=O)n(C)c(=O)n2C (stereo unspecified) | inactive: -14.2% [at 116 µM]
2 | COc1nn(CSP(=S)(OC)OC)c(=O)s1 | inactive: -26.4% [at 116 µM]
3 | CCCCc1nc2ccccc2c(=O)n1-c1cccc(OC)c1 | inactive: -26.1%
4 | CC(C)NCC(O)c1ccc([N+](=O)[O-])cc1 (stereo unspecified) | inactive: -9.49%
5 | N[C@@H]1C[C@H]1c1ccccc1 | inactive: 0.704%
6 | Nc1c(C(=O)Nc2ccc(OC(F)(F)F)cc2)sc2nc3c(cc12)N1CCC3CC1 | inactive: -59.9%
7 | COc1cc(/C=C/c2nc3ccccc3c(=O)n2-c2ccc(Br)c(C)c2)ccc1O | inactive: -22%
8 | CCC1(c2ccccc2)C(=O)N(COC)C(=O)N(COC)C1=O | inactive: -5.68%
9 | N#Cc1cc([N+](=O)[O-])ccc1NC(=O)c1cccn(Cc2cccc(F)c2)c1=O | inactive: -13.7% [at 57.5 µM, percent change from vehicle, -100% = no light]
10 | C#C[C@]1(O)CC[C@H]2[C@@H]3CCC4=CC(=O)CCC4=C3C=C[C@@]21CC | inactive: -39.7%
11 | O=C(CCl)c1ccc(Cl)cc1Cl | inactive: -8.36%
12 | O=C(Nc1ccc2c(c1)OCCO2)c1cccn(Cc2cccc([N+](=O)[O-])c2)c1=O | inactive: -12.3%
13 | CSc1ccc(C(c2c(O)c3ccccc3oc2=O)c2c(C)n(C)n(-c3ccccc3)c2=O)cc1 (stereo unspecified) | inactive: -25.4% [at 57.5 µM, percent change from vehicle, -100% = no light]
14 | CC(=O)[C@H]1CC[C@H]2[C@@H]3CC[C@H]4C[C@](C)(O)CC[C@]4(C)[C@H]3CC[C@]12C | inactive: -0.771%
15 | CN1CCN(c2csc3ccc(F)cc3c2=O)CC1 | inactive: 10.1% [at 57.5 µM, percent change from vehicle, -100% = no light]
16 | CN(C)CCc1ccc(O)cc1 | inactive: -10.4% and inactive: -9.26%
17 | CCOC(=O)C1(c2ccccc2)CCN(CCC(C#N)(c2ccccc2)c2ccccc2)CC1 | inactive: -38.1%
18 | NC1=NC(=O)C(c2ccccc2)O1 (stereo unspecified) | inactive: -3.04%
19 | CCOc1ccc(-n2c(/C=C/c3ccccc3)nc3ccccc3c2=O)cc1 | inactive: -10.1% [at 57.5 µM, percent change from vehicle, -100% = no light]
20 | N#Cc1cc2c(nc1SCC(=O)Nc1cccc(F)c1)C1CCN2CC1 | inactive: -39.4% [at 57.5 µM, percent change from vehicle, -100% = no light]
21 | C[C@]12CC[C@H]3[C@@H](CCC4=CC(=O)CC[C@@]43C)[C@H]1CC[C@H]2O | inactive: -16%
22 | COC1=C[C@@H]2[C@@H]3Cc4ccc(OC)c(O)c4[C@]2(CCN3C)CC1=O | inactive: -59.3%
23 | COc1ccc(N(C(=O)Oc2c(C)cccc2C)c2ccnc(Nc3ccc(N4CCN(C)CC4)cc3)n2)c(OC)c1 | inactive: -37.1%
24 | Cc1ccc(NC(=O)N(Cc2ccc3c(c2)OCO3)C2CCN(Cc3ccccc3)CC2)cc1F | inactive: -19.7%
25 | O=C(Nc1ccc(Br)cc1)c1cc(Br)cc(Br)c1O | inactive: 11.2%
26 | c1ccc2c(CN3CCNCC3)cccc2c1 | inactive: -9.95%

Row | SMILES | activity change, positive = activation
27 | C#CCN(C)[C@H](C)Cc1ccccc1 | inactive: -14.6% and inactive: -1.58%
28 | Cc1cc(C)cc(-n2c(/C=C/c3cccc(F)c3)nc3ccccc3c2=O)c1 | inactive: -35.6%
29 | CC1COC2(c3ccccc3Cl)c3cc(Cl)ccc3NC(=O)CN12 (stereo unspecified) | inactive: -14.6%
30 | COc1ccc(NC(=O)CN2C(=O)C(C)N=C(c3ccccc3F)c3cc(Cl)ccc32)c(OC)c1 (stereo unspecified) | inactive: -25.7% [at 57.5 µM, percent change from vehicle, -100% = no light]
31 | CC(C)NCC(O)c1ccccc1Cl (stereo unspecified) | inactive: -5.98%
32 | Cc1nnc(NC(=O)c2cccn(Cc3ccc(Cl)cc3)c2=O)s1 | inactive: -9.06%
33 | O=C(Nc1ccccc1-c1ccc(Cl)cc1)c1cccnc1Cl | inactive: -14.5% [at 116 µM]
34 | CCN1C[C@]2(OC(=O)c3ccccc3NC(C)=O)CC[C@H](OC)[C@@]34[C@H]5CC6[C@@H](OC)C[C@](O)(C(C[C@@H]23)[C@@H]14)[C@@]5(O)[C@@H]6OC | inactive: -27.4%
35 | COc1ccc2c(C(=O)c3ccc(Cl)cc3)c(C)n(CC(=O)O)c2c1 | inactive: -8.91%
36 | CCC(C(N)=O)N1CCCC1=O (stereo unspecified) | inactive: -7.16%
37 | CC(=O)[O][Hg][c]1ccccc1 | inactive: -95.6%
38 | Cc1ccc(-n2c(/C=C/c3ccc(Br)s3)nc3ccccc3c2=O)cc1C | inactive: -29.1%
39 | ClC1=C(Cl)C2(Cl)C(CBr)CC1(Cl)C2(Cl)Cl (stereo unspecified) | inactive: -6.53% [at 57.5 µM, percent change from vehicle, -100% = no light]
40 | O=c1[nH]c2ccccc2n1C1CCN(CCCC(c2ccc(F)cc2)c2ccc(F)cc2)CC1 | inactive: -38.3%
41 | CCN(CCO)CCn1c(Cc2ccccc2)nc2c1c(=O)n(C)c(=O)n2C | inactive: -2.35%
42 | COc1ccc(OC)c(NC(=O)Cn2cc(C(=O)c3ccccc3F)c3ccccc32)c1 | inactive: -34.6%
43 | CC(=O)Nc1cc([As](=O)(O)O)ccc1O | inactive: 2.59%
44 | C=CCOC(Cn1ccnc1)c1ccc(Cl)cc1Cl (stereo unspecified) | inactive: -26.4%
45 | C=CCN1CC[C@]23CCCC[C@H]2[C@H]1Cc1ccc(O)cc13 | inactive: -10.5%
46 | FC(F)(F)c1cccc(C2=CCN(CCc3ccc4ccccc4c3)CC2)c1 | inactive: -7.69%
47 | Nc1ccc([As](=O)(O)O)cc1 | inactive: -2.5%
48 | O=C(COc1ccc(Cl)cc1)Nc1ccc(Cl)cc1C(=O)c1ccccc1 | inactive: -3.77% [at 57.5 µM, percent change from vehicle, -100% = no light]
49 | Cc1c(C(c2ccc(F)cc2)c2c(O)c3ccccc3oc2=O)c(=O)n(-c2ccccc2)n1C (stereo unspecified) | inactive: -26.6%
50 | CCOP(=O)(NC(C)C)Oc1ccc(SC)c(C)c1 (stereo unspecified) | inactive: 0.43% [at 116 µM]
51 | O=C1CC(c2c(F)cccc2Cl)c2c(c3ccccc3oc2=O)O1 (stereo unspecified) | inactive: 3.72% [at 57.5 µM, percent change from vehicle, -100% = no light]
52 | O=c1[nH]c2ccc(Cl)cc2c(N[C@@H]2CN3CCC2CC3)c1-c1nc2ccccc2[nH]1 | inactive: -13.6%

Row | SMILES | activity change, positive = activation
53 | S=C(SSC(=S)N1CCCCC1)N1CCCCC1 | inactive: -12.3%
54 | CC1OC(C)OC(C)O1 (stereo unspecified) | inactive: -2.01%
55 | Cc1nnc(NC(=O)c2cccn(Cc3ccccc3F)c2=O)s1 | inactive: 16.1% [at 57.5 µM, percent change from vehicle, -100% = no light]
56 | O=S(=O)(O)C(F)(F)C(F)(F)C(F)(F)C(F)(F)F | inactive: -4.97% [at 116 µM]
57 | CC(=O)N1CC(=O)Nc2ccc(F)cc2C1c1ccccc1 (stereo unspecified) | inactive: 1.46%
58 | CCC12CN3CC(CC)(CN(C1)C3c1ccccn1)C2=O (stereo unspecified) | inactive: 0.831%
59 | CCCCCCCCC(=O)NCc1ccc(O)c(OC)c1 | inactive: -8.92%
60 | CCCSc1nc2ccccc2c(=O)n1-c1ccccc1OC | inactive: -31.9%
61 | COP(=S)(OC)Oc1cc(Cl)c(Cl)cc1Cl | inactive: -2.14%
62 | Cc1cc(C)cc(-n2c(=O)[nH]c3ccccc3c2=O)c1 | inactive: 18.2% [at 57.5 µM, percent change from vehicle, -100% = no light]
63 | O=C(O)c1ccc(=O)[nH]c1 | inactive: -1.68%
64 | CCN(CC)C(=O)c1ccc(C2=CC3(CCNCC3)Oc3cccc(O)c32)cc1 | inactive: -3.13%
65 | O=C1CC(c2ccc(Br)cc2)c2c(c3ccccc3oc2=O)O1 (stereo unspecified) | inactive: -9.54% [at 57.5 µM, percent change from vehicle, -100% = no light]
66 | C[C@H]1CCCC=CC2C[C@H](O)C[C@@H]2[C@H](O)C=CC(=O)O1 (stereo partly specified) | inactive: -35.6%
67 | O=C(Nc1ccon1)c1cccn(Cc2cccc(Cl)c2)c1=O | inactive: -16.2% [at 57.5 µM, percent change from vehicle, -100% = no light]
68 | CC[N+]1(CC)CCC(OC(=O)C(O)(c2ccccc2)c2ccccc2)C1 (stereo unspecified) | inactive: -8.92%
69 | O=c1[nH]c2ccccc2c(=O)n1-c1ccc(Cl)c(Cl)c1 | inactive: 4.16% [at 57.5 µM, percent change from vehicle, -100% = no light]
70 | Cc1cccc(NC(=O)Cn2cc(C(=O)c3ccccc3)c3ccccc32)c1C | inactive: -35.4%
71 | Cc1oc(-c2ccc(Cl)cc2)nc1CN1C(=O)CN=C(c2ccccc2)c2ccccc21 | inactive: -25.6%
72 | C=CCC1([C@H](C)CCC)C(=O)NC(=O)NC1=O | inactive: -17.2% [at 116 µM]
73 | O=C(Nc1ccon1)c1cccn(Cc2ccccc2)c1=O | inactive: 3.26% [at 57.5 µM, percent change from vehicle, -100% = no light]
74 | CC[C@H]1C[C@@H]2C[C@H]3c4[nH]c5ccc(OC)cc5c4CCN(C2)[C@@H]13 | inactive: -15.3% [at 116 µM]
75 | C[C@]12CCC(=O)C(O)=C1CC[C@@H]1[C@@H]2CC[C@]2(C)C(=O)CC[C@@H]12 | inactive: -12%
76 | COc1ccc(/C=C/c2nc3ccccc3c(=O)n2-c2ccc(C)cc2)cc1O | inactive: -15.3% [at 57.5 µM, percent change from vehicle, -100% = no light]
